Positions count from the first letter of the chain named. Names may count otherwise. ± gives the standard deviation of the averaged measurements. Laboratory Escherichia coli strains with one amino-acid change in an essential protein, pooled on minimal glucose agar with carbenicillin or gentamicin at twice the control MIC (plus kanamycin and chloramphenicol for the plasmids), 48 h. Fold change of barcode share against drug-free plates; higher = less susceptible. Active = above 20 in both replicates (the paper's putatively resistant). '<' = one read or none on drug, '>' = one read or none on a drug-free plate. Shares are relative, so most strains fall below 1 when a few take over. Listed are strains with at least 15 reads on both drug-free plates, and hits; most hits rest on fewer reference reads. Replicate rank correlation about 0.5. Edits are read from barcodes.
B1: glmS V95W (protein)
chain: MCGIVGAIAQRDVAEILLEGLRRLEYRGYDSAGLAVVDAEGHMTRLRRLGKVQMLAQAAEEHPLHGGTGIAHTRWATHGEPSEVNAHPHVSEHIWVVHNGIIENHEPLREELKARGYTFVSETDTEVIAHLVNWELKQGGTLREAVLRAIPQLRGAYGTVIMDSRHPDTLLAARSGSPLVIGLGMGENFIASDQLALLPVTRRFIFLEEGDIAEITRRSVNIFDKTGAEVKRQDIESNLQYDAGDKGIYRHYMQKEIYEQPNAIKNTLTGRISHGQVDLSELGPNADELLSKVEHIQILACGTSYNSGMVSRYWFESLAGIPCDVEIASEFRYRKSAVRRNSLMITLSQSGETADTLAGLRLSKELGYLGSLAICNVPGSSLVRESDLALMTNAGTEIGVASTKAFTTQLTVLLMLVAKLSRLKGLDASIEHDIVHGLQALPSRIEQMLSQDKRIEALAEDFSDKHHALFLGRGDQYPIALEGALKLKEISYIHAEAYAAGELKHGPLALIDADMPVIVVAPNNELLEKLKSNIEEVRARGGQLYVFADQDAGFVSSDNMHIIEMPHVEEVIAPIFYTVPLQLLAYHVALIKGTDVDQPRNLAKSVTVE
B2: glmS V95D (protein)
chain: B1 chain with W95D
B3: glmS V95P (protein)
chain: B1 chain with W95P
B4: glmS V95Q (protein)
chain: B1 chain with W95Q
B5: glmS I181A (protein)
chain: B1 chain with W95V, I181A

Molecular target: Escherichia coli (laboratory strain)
Test: barcode share on antibiotic plates over drug-free plates; higher = less susceptible
Experimental: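 A pool of E. coli strains, each edited to carry one amino-acid change in an essential protein, was grown for 48 h on minimal glucose agar with or without antibiotic; strain barcodes were sequenced; mean of two replicates.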

[1] = antibiotic: carbenicillin, 2× MIC (3.1 µg/mL)
[2] = antibiotic: gentamicin, 2× MIC (MIC 0.45 µg/mL)

| Protein | fold change of barcode share [1] | fold change of barcode share [2] |
| --- | --- | --- |
| B1 | 0.394 ± 0.13 | 0.00367 ± 0.0015 |
| B2 | 0.207 ± 0.15 | 0.0068 ± 0.0054 |
| B3 | 0.327 ± 0.049 | 0.00586 ± 0.0065 |
| B4 | 0.301 ± 0.086 | < 0.00185 |
| B5 | 0.57 ± 0.39 | < 0.017 |
